Results taken from PMC6212790.
This is one part of the list. At the low end of the ranking the order means little.

target: T1, GST-Rok (full length) (UniProt O34857); assay: protein binding microarray; conditions: Rok is a gene silencer of Bacillus subtilis; high values mean tight binding; most listed sequences are background and not binding sites; double strand, one strand shown;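 also: rank score from −0.5 (least bound) to 0.5 (best bound)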
T1 sequence: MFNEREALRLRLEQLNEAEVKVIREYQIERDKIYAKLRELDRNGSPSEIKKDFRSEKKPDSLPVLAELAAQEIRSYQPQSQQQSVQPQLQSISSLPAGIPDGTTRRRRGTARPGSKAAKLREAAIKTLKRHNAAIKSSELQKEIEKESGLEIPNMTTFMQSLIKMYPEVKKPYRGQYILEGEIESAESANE

Sequence | binding signal [E-score]
AACACCGC | -0.108
AACTAGAC | 0.103
CTGTTAAC | -0.0495
AGAGGCCT | -0.313
ACGAGCAC | -0.0937
CTAGGGAA | -0.0395
AAAACTCG | -0.00184
AATACCGA | 0.239
AGGTGCTC | -0.257
GAGATATC | 0.181
AATCACGG | -0.0252
AATTCAGC | 0.0855
AAGCTCCG | -0.0493
CGCGAGAA | -0.0886
CTTGCCAA | -0.15
AAGGTGCC | -0.184
CCGTTTGA | -0.000462
TAAGGGGA | -0.243
GCTTGCTA | 0.101
ACCACTCA | 0.182
CAAGGAAG | -0.15
GACGAGAC | -0.163
AGAGTCGG | -0.126
ATTAAACG | 0.0731
ACAGCCAG | 0.00412

Sequence | binding signal [E-score]
CGTGTCGA | -0.138
GCGACAAA | -0.194
GTCAAGAA | -0.155
TCAAATAA | 0.00538
GGGATGGA | -0.269
CTTAAATA | 0.103
AGGACGTA | 0.169
ACATTCTA | 0.216
CGTCCTCC | -0.378
CGACATTC | -0.0254
TGAGAGAA | -0.095
CCAGTGAC | -0.108
CGTCGGGC | -0.306
GTTCATCA | -0.00863
AATATATA | 0.469
ACAGTTGG | -0.00878
AAGGCCTC | -0.417
AGGTGCTG | -0.0848
GATTCCCC | -0.259
GAGCATGA | -0.0489
CCACTCAC | -0.034
GGGATAGA | -0.162
CGAGAGTA | 0.0024
CTATCCAC | -0.0226
CCAATGCG | -0.115

Sequence | binding signal [E-score]
ATTACACA | 0.283
TCCTTGCA | -0.052
AATTTCAT | 0.287
CGGTGTGC | -0.231
AAAAGTGT | 0.00996
AGATTTAG | 0.0884
AAGTTTCA | 0.138
TGGACACA | -0.151
GAGGCGGC | -0.203
GATAGAAA | 0.307
AAGACGAC | -0.209
ACCGTCAT | -0.0541
GAATAGTC | -0.0285
AACCATCG | -0.0207
CGCTGCTC | -0.226
CGCACACC | -0.0981
CGCTAGCC | -0.156
TGCCCTAA | -0.161
CCGTGTAC | -0.0486
CTCTTGTA | 0.0452
CGATTTTA | 0.269
CCCTGTGC | -0.092
AAAGAAAA | -0.0605
CGGTCGAC | -0.308
GCGGTTCA | 0.0601

Sequence | binding signal [E-score]
CCTCAGAG | -0.233
CTGCATCC | 0.0123
AACTCTGT | 0.0607
CGCTGTGA | -0.0511
CACGGGAA | -0.0768
ACTAGGCG | -0.156
CTAATCCA | 0.0912
ATTAGATA | 0.367
TCCCCAGA | -0.4
CTGGTGGA | -0.272
CACCAAAA | -0.0363
GGTCACGA | -0.0974
CAACCAGC | -0.255
ATGACAAT | 0.145
ACTTTTGC | 0.0319
ATACGTTG | 0.0846
AATCATGT | -0.00113
AGCTATAC | 0.151
CGACCCTA | -0.153
ACACCTGC | -0.0529
CCCAGCAG | -0.167
ATCTAACG | 0.233
AAACGCTG | 0.0976
ATACATCA | 0.191
GGTCATAA | 0.0288

Sequence | binding signal [E-score]
GCGTGACC | -0.0195
CTGGGAAC | -0.222
ACACTGCG | -0.162
AGGCCCCT | -0.445
ATATCCAT | 0.182
CTTATAGA | 0.112
CACGGCTC | -0.111
GGGTCGAC | -0.32
AACTCAAG | -0.00285
ACCAGCAT | -0.00397
CATCAGGA | -0.0806
CAGGAACG | -0.125
ATAGGAAT | 0.275
GTGGCGGA | -0.204
ATTCACGG | -0.121
AAAGCCCA | -0.136
ATATCTAG | 0.346
ACGGGAAA | 0.104
CGGGACGC | -0.347
GATGACCA | -0.106
CCTTCTGC | -0.222
GTGACAAC | -0.0442
AAGCGTAG | -0.0858
CGCATTAG | 0.143
GACCACCA | -0.264

Sequence | binding signal [E-score]
ACCTGGTG | -0.368
AGGCCGCC | -0.353
ACAGTTTG | 0.125
ACCGACAG | 0.0868
GCGAGAGA | -0.245
CCCACGCA | -0.316
CTGTACCC | -0.0566
CTCGCAGC | -0.1
CCGTCACA | -0.181
TACGCTCA | -0.15
ACTAACAT | 0.167
TCCTCGAA | -0.0637
CGTCGTAG | 0.159
CAGAGCTG | -0.0573
ATCGTTCC | 0.141
ATAGGGCC | -0.0878
GGAACCAA | 0.00103
CCGTCACC | -0.267
ATCTTGGC | 0.14
ATAGTCCA | 0.00872
ATGAGCAA | 0.12
TCACACAA | 0.0655
AGACTTAA | -0.0719
GACTGTAC | 0.0738
ATGGGCCA | -0.14

Sequence | binding signal [E-score]
ATTAGAGC | 0.201
AAGCCGTC | -0.213
GTCACCCA | -0.248
GGTCCGAC | -0.131
ACACTAAA | 0.174
ATACCTCG | 0.174
GTTGTATA | 0.348
GAACGTTA | 0.0838
AACTCTAT | 0.078
CACACTAG | 0.147
GCTCAAGC | -0.291
GCCGCGAA | -0.302
ATGGCATC | -0.115
AGAAATGG | 0.0767
GAAAAGAA | 0.0486
AAGTCGCG | 0.0517
ATTCTGGC | 0.00683
CGTATTGC | 0.109
GCCCAGCA | -0.176
GCGGAGAC | -0.093
ACATGTTG | -0.0393
ACTGGTCG | -0.264
